# Data as given in the supplement of paper PMC11417369.
# The list shows a part of the results.
# Test system: PF3D7_0420300 AP2 domain 1 (GST-tagged)
# Test: gcPBM binding intensity (ln(normalized median fluorescence intensity)); higher = stronger DNA binding
# Summary of the method: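 Using an Agilent 4 × 180k array, primer-extended double-stranded 36-bp intergenic genomic probes and negative controls were exposed for 1 h to GST-fused P. falciparum DNA-binding domains expressed in E. coli. Binding was carried out in 1× PBS with 1% milk, 0.2 mg/ml BSA, 0.5% salmon testes DNA and 0.03% Triton X-100, and protein was detected with Alexa488 anti-GST antibody and a 488 nm scan. Binding intensity is the highest Masliner-normalised natural-log median intensity across replicate spots of either probe orientation.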
row,Sequence,gcPBM binding intensity (ln)
1,ATAAGAAAAAAGAACTGTACTAATAAAATATAAAAA [XGTACX_site3715],9.3
2,ATTATATAATTGTCTTCACACACACCGATATATATA [CACACA_site8883],9.93
3,GCGGCGGTATCATGCACACGTATATATTGTAACAGT [CACACA_site4958],9.27
4,TCATTGAAAAAAATGTGTACTCATCAAGTATATATT [XGTACX_site6430],9.15
5,TTTACAGATACATTCACACATAAATTCATGTATAAT [CACACA_site5387],9.28
6,ATATATAATTTTTGTTGTACATTATAAAAATAATTA [XGTACX_site2738],8.94
7,ATTGTTATGAGAACAGCACACAAGCTACATCATATA [CACACA_site8192],9.26
8,TATATAAGGATATATACACACATATAGGTATTTATA [CACACA_site7092],9.42
9,TCAGGAATATAAAGTGCACACATAATTTGGGGGCAA [CACACA_site7974],9.5
10,AATATGATTATTACCCGTACATATTACCTTATGGTA [XGTACX_site1714],9.21
11,AATGATATTATCTCTTCACACACTCACATACAGACA [CACACA_site8335],9.49
12,TTTTAAAAAAATAAAAAATAATAAAAAAAATAAAAA [CACACA_negctrl_site1693],9.05
13,AAAAATAAATAAAGTGGTACATAAAAAAGAGAAATT [XGTACX_site874],9.74
14,GTGCATATGTAGATATGTACATATTTATTTATTATT [XGTACX_site7343],9.19
15,TATTTATTATTATGTACACACTATATTAAAACATAA [CACACA_site4549],9.22
16,TATGTGAATCCTAAGTGTACACATCTTACATATATA [XGTACX_site2506],9.3
17,AGTATACGCAGACACACACACACATATATATATATA [CACACA_site1735],9.98
18,GGTATATGCATAAAGAGTACGTAACTTCTTTTTGTT [XGTACX_site6344],9.48
19,ATAAGATGATTAATTACACACTTTATAGGATATTTA [CACACA_site1711],9.29

row,Sequence,gcPBM binding intensity (ln)
1,AAATGTGTAAATATAATTAGTTTCACAAAACAAATA [GTGCAC_negctrl_site543],9.29
2,TTTTTTTTTTTTTCTTCACACACAGTACTACTATTT [CACACA_site8759],9.55
3,TTAGCTTTTTTTTAAACATGCAACTACTTGATCCAC [TGCATGCA_site1017],8.95
4,AAACGTAACATATATATATATATATATAAGATATAT [CACACA_negctrl_site126],9.37
5,AATGAATATATATAAATATATATATATATATATATA [CACACA_negctrl_site1494],8.85
6,ATAAATCTACACCGCACACAAAAACAACAAATATTA [CACACA_site5396],9.61
7,ATGTTATTACATAATTGTACATTTTGAGCAATTAAG [XGTACX_site4640],9.08
8,ATATTTGTATAAATTGCACACTTTATTTTTTTTAAG [CACACA_site1558],9.34
9,TATATAATATTCTACACACCAACAACAAACATATAT [CACACA_site567],9.7
10,ATATTCTGATTTTAGATGCACTTCGTTAACAAAATA [GTGCAC_site9958],9.13
11,ATATATATATTTATATGTACATAATATAAAATTTCT [XGTACX_site3720],9.08
12,TTATATATATGTGTATGTACATATATATATATATAT [XGTACX_site1141],9.23
13,AAAAGAATAATAATTTATGTATATTAATTAAAGAAT [XGTACX_negctrl_site402],9.21
14,TATCATATATTATATGCACACATGTTTTTCAAGAAT [CACACA_site1892],9.31
15,TATTACACATATTATGTGCACATATATAATCAATAT,9.34
16,ATTTTATTTTTGTGCACACTGATAAATTGAAAAGAG [CACACA_site2948],9.18
17,AAAAAAAAAAATTAAAGTACTAATTAAAATTATATG [XGTACX_site5289],9
18,TATATATATATAATATGTACATATATTAAGCATTTT [XGTACX_site4470],9.31
19,ATAAATTTTTTATGAACACACAAATACCCACGCTCA [CACACA_site2659],9.49

row,Sequence,gcPBM binding intensity (ln)
1,TTTTAATTAAATAAATGTACTCATTCTATTATTTAT [XGTACX_site3032],9.11
2,ATACCTGTTGTGTTACGTACATAATTTTAATGTTTG [XGTACX_site8181],9.62
3,AAATTCAATTTGCGCTGTACATGAAGATATAAATTT [XGTACX_site4844],9.18
4,AAAAAAAACACGCGCACACACACACCCACAGACACA [CACACA_site5253],9.92
5,TATTTTTTAAAAAATTATAAATAAAATTATATTACG [CACACA_negctrl_site324],8.78
6,TATATATATAAATACACACACACACCCCAAAGCGTA [CACACA_site4211],10.1
7,TATAATATATTCACTCGTACATATTTAATAATATCT [XGTACX_site6209],9.34
8,ACAGTATATTAAAAAATACACACGTATTATATCTAC [CACACA_site2640],9.4
9,CCAAAAAATATATGTAGTACTACATTATTAAATATG [XGTACX_site5128],9.24
10,ATGTATAAACAAAAGGGTACATATATATATATATAT [XGTACX_site2087],9.24
11,AGAAAAATTACAAAATGTACATAATGTGTTATTAAT [XGTACX_site7877],9.35
12,AATAAAAAACATGAAAGTACTTTAAAAAAGGTAATA [XGTACX_site1897],9.53
13,AAGTACATACATAAAACACACACATATATATATATA [CACACA_site8541],9.59
14,AATATATAAATCAATAGTACATATATATATATATAT [XGTACX_site3898],9.02
15,ATTAAGTACTAAAAAGTGCAGTTCGGTACTGTGCTT [GTGCAC_site9755],9.25
16,ATTAAATATGAGGGAACACACACATGATATATAAAT [CACACA_site8755],9.97
17,TTATATAAAGAATGTACACACAGAAATGCACCCACA [CACACA_site2282],9.73
18,TTATATTTATAAAGGTGTACCTTAAAATGATTTTAC [XGTACX_site3774],8.89
19,AAAATTAAATAAAAATGTACAGAAATATTATATGAA [XGTACX_site5695],9.37
